Data: the supplement of paper PMC3724861
Some of the results follow.

system: T1, Caupolican (Caup) homeodomain DNA-binding domain; test: PBM E-score (8-mer, recovered from the published 9-mer minima) (E-score (dimensionless, -0.5 to 0.5)); Drosophila protein; higher = stronger relative binding preference, active = 0.31 or more
T1 sequence: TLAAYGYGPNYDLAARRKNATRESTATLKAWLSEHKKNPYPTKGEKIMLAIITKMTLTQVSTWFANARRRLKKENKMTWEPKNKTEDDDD
Method in brief: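 Caup's homeodomain DNA-binding domain (residues 214-303) was made by in vitro transcription and translation and applied at 100 nM to custom-designed protein binding microarrays. Each value is an enrichment score that gives relative binding preference for a short DNA word, with higher meaning stronger. The 8-mer values were recovered from published 9-mer scores, each of which was the minimum of its two constituent 8-mer scores. A cutoff of 0.31 marks candidate sites.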

Row | Sequence | PBM E-score
1 | CCCTAGGG | inactive: -0.253
2 | CACCTCAA | inactive: -0.0613
3 | ATGAACGA | inactive: 0.103
4 | TGACCAAA | inactive: 0.0602
5 | ATTAGGCG | inactive: -0.0369
6 | AATAATCT | inactive: 0.112
7 | GGAACCTA | inactive: -0.0383
8 | CGCCTACG | inactive: -0.147
9 | ACTGAATG | inactive: 0.0165
10 | CCGTAAGG | inactive: -0.166
11 | GTTAGATA | inactive: 0.172
12 | ACTCGCAT | inactive: -0.0103
13 | CACATGCC | inactive: 0.0641
14 | CACGCGAG | inactive: -0.0125
15 | GAGCAGAC | inactive: -0.0808
16 | AGAGGTGG | inactive: -0.107
17 | AGTAAAGG | inactive: -0.0118
18 | ACTAGGCC | inactive: -0.164
19 | TGACAACA | active: 0.377
20 | CGCGAGGA | inactive: -0.0824
21 | AAATAAGC | inactive: -0.0182
22 | ACTTGTAA | active: 0.403
23 | AATATGTC | inactive: 0.297
24 | GCTGGTCC | inactive: -0.114
25 | CGGTACCG | inactive: -0.116

Row | Sequence | PBM E-score
26 | ACGGTGGG | inactive: -0.165
27 | ATCGTAAC | inactive: 0.0898
28 | GGCTTTTA | inactive: -0.0379
29 | GATTCCGC | inactive: -0.0981
30 | TCCAAGCA | inactive: 0.0075
31 | CACGGTCG | inactive: -0.034
32 | CTGTCTAA | inactive: 0.0213
33 | TCTAGGCA | inactive: -0.0559
34 | CCCGTGTC | inactive: 0.145
35 | CAGAGGAA | inactive: -0.0465
36 | TGTCGTAA | inactive: 0.229
37 | CCATTCGC | inactive: -0.177
38 | CGAAAAGC | inactive: -0.0881
39 | GCCAACTA | inactive: -0.0226
40 | ATTTAGTC | inactive: 0.0884
41 | CAGATTGC | inactive: 0.0419
42 | ACCGCCCT | inactive: -0.146
43 | GGCGGGAA | inactive: -0.177
44 | CTCATCCC | inactive: -0.0874
45 | ACGACTAT | ≥ 0.162
46 | CACCTCAG | inactive: -0.0141
47 | CGTGAGGC | inactive: -0.146
48 | CAAGGCCA | inactive: 0.00207
49 | AGGGATCG | inactive: -0.00681
50 | CCCGTTGA | inactive: -0.0801

Row | Sequence | PBM E-score
51 | GGCGGACC | inactive: -0.262
52 | GCCAGCAA | inactive: -0.125
53 | CTAAACAC | inactive: 0.182
54 | ACGACTAA | inactive: 0.0797
55 | AAAGTAAG | inactive: 0.0511
56 | CATCGGGC | inactive: -0.144
57 | TGGATACA | inactive: 0.221
58 | GGCGCCAC | inactive: -0.232
59 | CAGCTTCC | inactive: -0.193
60 | GTGGGAAC | inactive: -0.0676
61 | CGCCGACG | inactive: -0.223
62 | ACACCCCC | inactive: -0.103
63 | CATCGATA | inactive: 0.19
64 | AGACATTC | inactive: 0.177
65 | CCAAAGAA | inactive: -0.0979
66 | CAGACCAG | inactive: -0.0755
67 | CCTGTGCA | inactive: -0.0159
68 | AGTCTAAT | inactive: 0.0485
69 | GATTGACA | inactive: 0.276
70 | AGGGTCTG | inactive: -0.156
71 | ACGAGCCA | ≥ 0.0794
72 | GATTGACC | inactive: -0.046
73 | GACTGATC | inactive: 0.0481
74 | AGCCATCG | inactive: -0.00355
75 | AAGCCCGC | inactive: -0.226

Row | Sequence | PBM E-score
76 | GCCACAAC | inactive: 0.00109
77 | CCACAGGC | inactive: -0.236
78 | AGAGCGCC | inactive: -0.211
79 | AGTACCGA | inactive: 0.0457
80 | CACTGTAG | inactive: 0.0607
81 | ATAGATAA | inactive: 0.137
82 | ACTCGACC | inactive: -0.0389
83 | AAGAGAGC | inactive: -0.186
84 | CCGGTAAA | inactive: -0.024
85 | GGCAAGGA | inactive: -0.11
86 | CAGCACTG | inactive: -0.137
87 | CCATAAGC | inactive: -0.0898
88 | AAGTCGCA | inactive: 0.0117
89 | TATGTCAA | active: ≥ 0.359
90 | CCGATCCG | inactive: -0.0385
91 | AATCGCGA | ≥ 0.0397
92 | ATGGCGCC | inactive: -0.186
93 | AGACGGCA | inactive: -0.0383
94 | CCTATCGC | inactive: -0.166
95 | ATACCTCG | inactive: 0.112
96 | AAGCGGGC | inactive: -0.228
97 | AAATTGTT | inactive: 0.177
98 | CTCGCTTA | inactive: -0.0736
99 | ATCTGCCA | ≥ -0.00773
100 | ATATGGTC | inactive: 0.105

Row | Sequence | PBM E-score
101 | CCACGCAC | inactive: -0.144
102 | ACCACACA | ≥ 0.0835
103 | GGAGGGCC | inactive: -0.279
104 | CTGACCTA | inactive: 0.0422
105 | ACAGCTGC | inactive: -0.0304
106 | ATAACCTG | inactive: 0.124
107 | ATGATTGA | inactive: 0.126
108 | AACCGCAG | inactive: -0.179
109 | ACGACTCC | inactive: -0.031
110 | CATCATGA | inactive: 0.11
111 | ACCGCTGC | inactive: -0.148
112 | CATTGTAA | inactive: 0.276
113 | CACTGTTA | inactive: 0.0593
114 | AACCGAGG | inactive: -0.103
115 | CGTTCCTC | inactive: -0.131
116 | CCTAACGC | inactive: -0.159
117 | AGCTGAAT | inactive: 0.0188
118 | CATCAGTA | inactive: 0.176
119 | AGTGGAAT | inactive: -0.0202
120 | CGACTGAG | inactive: -0.188
121 | CATTAACA | inactive: 0.234
122 | GAGTTGTA | inactive: 0.24
123 | CCCCGCCG | inactive: -0.23
124 | ATAACTTA | ≥ 0.197
125 | ACTCCCAG | inactive: -0.0401

Row | Sequence | PBM E-score
126 | ACAGGATG | inactive: 0.249
127 | CATCCGAC | inactive: 0.0265
128 | ACAGGAGA | ≥ 0.148
129 | ACATCCGC | inactive: 0.134
130 | ATCAGCCG | inactive: -0.0947
131 | TGGGAGAA | inactive: -0.106
132 | CTATTAAC | inactive: 0.178
133 | CAATAGCG | inactive: -0.101
134 | GTGTTGCA | inactive: 0.184
135 | AGCCCTAC | inactive: -0.0687
136 | GTCATCTA | inactive: 0.0593
137 | AGAAATCT | inactive: -0.0884
138 | GACATGCC | active: 0.35
139 | GGGATTAA | inactive: 0.0457
140 | ATAAGGAA | inactive: 0.0175
141 | CATCTCCA | inactive: -0.0479
142 | CCGGGACG | inactive: -0.22
143 | ATTTTCGG | inactive: -0.0124
144 | ATTGACTG | ≥ 0.098
145 | TTATACAA | inactive: 0.28
146 | ACACATTG | inactive: 0.201
147 | ACGAACAT | active: 0.349
148 | CGCTGTAA | inactive: 0.138
149 | ACTGCAGT | inactive: 0.0445
150 | TGCTTCCA | ≥ 0.0143

Row | Sequence | PBM E-score
151 | AGGGCCAG | inactive: -0.228
152 | AGAATTCA | inactive: -0.0191
153 | CTTCTGGA | inactive: -0.0374
154 | ACTCCCAT | ≥ 0.0276
155 | GGCCTCCC | inactive: -0.367
156 | ATTCACAC | inactive: 0.145
157 | GCTACGCA | inactive: -0.151
158 | AAGAGCGT | inactive: -0.0251
159 | AGACATGA | active: 0.341
160 | GGAACTTA | inactive: -0.0199
161 | GCTTCTGA | inactive: -0.0992
162 | CCCCTCAC | inactive: -0.178
163 | CCTAGGAC | inactive: -0.0698
164 | GAGTCAGC | inactive: -0.111
165 | GTGAGCAA | inactive: 0.00908
166 | GCGATGCC | inactive: -0.178
167 | ACAAATCG | inactive: 0.118
168 | AAGGCCCG | inactive: -0.268
169 | ATTGGGGC | inactive: -0.183
170 | AGCATATG | inactive: 0.114
171 | AAGATAGG | inactive: 0.0556
172 | GGTATATA | inactive: 0.0845
173 | AGCTCCAT | inactive: -0.0621
174 | GTCTATAA | inactive: 0.152
175 | CATGAGGC | inactive: -0.122

Row | Sequence | PBM E-score
176 | TAAACCCA | inactive: 0.0711
177 | CTTATCGA | inactive: 0.129
178 | AGATAGAA | inactive: 0.0568
179 | ATCAACAG | inactive: 0.109
180 | ACAGGGAC | inactive: 0.0219
181 | CTCCGTGC | inactive: -0.193
182 | CACCCGCA | inactive: -0.198
183 | GCGCTTAC | inactive: -0.124
184 | AACAACAT | active: 0.409
185 | ACTCAAGT | inactive: 0.079
186 | TGCGGACA | inactive: 0.0958
187 | GGGCTACA | inactive: 0.0237
188 | AGTGTAGG | inactive: 0.0998
189 | GACATAAC | active: 0.325
190 | CACAGAGC | inactive: 0.00442
191 | AGATTTTG | inactive: 0.062
192 | ACTGATTC | inactive: 0.136
193 | GAAATTCA | inactive: 0.0378
194 | CTTAGCAA | inactive: -0.0329
195 | CACGTGCA | inactive: 0.0826
196 | GTCGCGAC | inactive: 0.0891
197 | CCGCAAGC | inactive: -0.198
198 | CGGTAAGC | inactive: -0.155
199 | AGCTTAAA | inactive: 0.00664
200 | AACCTATG | inactive: 0.138

Row | Sequence | PBM E-score
201 | ATGAGGGC | inactive: -0.0745
202 | GCTTCAAA | inactive: -0.018
203 | GGACCTCA | inactive: -0.132
204 | CTAACTTC | inactive: 0.0814
205 | GGCACTGA | inactive: -0.0563
206 | AGCTTCTG | inactive: -0.14
207 | AACGTGCC | inactive: -0.107
208 | ACAAAGGC | inactive: 0.0566
209 | AATGTGCG | inactive: 0.0368
210 | AGAACATC | inactive: 0.235
211 | ACTCTCAA | inactive: 0.00959
212 | AGGCTACA | inactive: 0.142
213 | CGTATTTA | inactive: 0.129
214 | CAGGGCCC | inactive: -0.169
215 | AGATCCCG | inactive: -0.0527
216 | GGCCAGTA | inactive: -0.128
217 | CGATCAGC | inactive: -0.0459
218 | AAGGTTAG | inactive: -0.0357
219 | CTGTTAAC | inactive: 0.117
220 | CACCTCTA | inactive: 0.0765
221 | AATGTTAT | inactive: 0.278
222 | ACCACCCC | inactive: -0.0997
223 | ACTTAAAG | inactive: -0.0269
224 | CCAGCACC | inactive: -0.262
225 | CCTTACCA | inactive: 0.0145
